Test results: the supplement of paper PMC4967469
Lines with a small IC50 respond at low doses; where the fit passes the top or lowest dose, that dose stands as a limit. AUC is the area under the same curve over the 256-fold range up to the top dose, as a fraction; it is 1 without any effect and falls as sensitivity rises.

The cell lines below were run with Cn1c(=O)n(-c2ccc(C(C)(C)C#N)cc2)c2c3cc(-c4cnc5ccccc5c4)ccc3ncc21 [NVP-BEZ235] (assay: Viability of human cancer cell lines after 72 h of drug (GDSC screen)).
Procedure: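 Human cancer cell lines in 384-well plates, medium with 10% serum, drug for 72 h over a 256-fold dose range (nine 2-fold or five 4-fold steps up to the top dose). Adherent lines were fixed and stained with the nucleic acid dye Syto60, suspension lines read with resazurin; signal relative to control wells, capped at 0 and 100%. One two-parameter sigmoid per drug and line, fitted in a mixed model over all curves with the slope shared within a line.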
For “KYSE-140 (oesophagus, adherent, top dose 0.25 µM)”, the AUC was 0.715 and the IC50 was 69.3 nM. “KARPAS-231 (B-cell leukaemia, suspension, top dose 0.25 µM)” gave an AUC of 0.592 and an IC50 of 26.2 nM. For “ALL-SIL (T-cell leukaemia, suspension, top dose 0.25 µM)”, the AUC was 0.81 and the IC50 was 110 nM. For “SU-DHL-6 (B-cell lymphoma, suspension, top dose 0.25 µM)”, the AUC was 0.465 and the IC50 was 12.9 nM. Work on “YAPC (pancreas, adherent, top dose 0.25 µM)” yielded an AUC of 0.879 and an IC50 greater than 250 nM. Work on “NCI-H2452 (mesothelioma, adherent, top dose 0.25 µM)” yielded an AUC of 0.668 and an IC50 of 50.7 nM. In the case of “JHOS-3 (ovary, adherent, top dose 0.25 µM)”, the AUC is reported as 0.9 and the IC50 is reported as greater than 250 nM. “SUP-HD1 (Hodgkin lymphoma, suspension, top dose 0.25 µM)” gave an AUC of 0.748 and an IC50 of 77.3 nM. For “CML-T1 (chronic myeloid leukaemia, suspension, top dose 0.25 µM)”, the AUC was 0.611 and the IC50 was 29.8 nM. “SK-PN-DW (Ewing sarcoma, adherent, top dose 0.25 µM)” was tested, and the AUC was 0.619 and the IC50 was 33.6 nM. “A4-Fuk (B-cell lymphoma, suspension, top dose 0.25 µM)” gave an AUC of 0.56 and an IC50 of 22.9 nM. Work on “NCI-H1304 (small cell lung carcinoma, suspension, top dose 0.25 µM)” yielded an AUC of 0.971 and an IC50 greater than 250 nM. “HT-144 (melanoma, adherent, top dose 0.25 µM)” gave an AUC of 0.797 and an IC50 of 134 nM. For “SF126 (glioma, adherent, top dose 0.25 µM)”, the AUC was 0.616 and the IC50 was 33.3 nM. “8305C (thyroid, adherent, top dose 0.25 µM)” was tested, and the AUC was 0.643 and the IC50 was 44.1 nM. “TE-11 (oesophagus, adherent, top dose 0.25 µM)” gave an AUC of 0.759 and an IC50 of 80.6 nM. “MZ7-mel (melanoma, adherent, top dose 0.25 µM)” gave an AUC of 0.89 and an IC50 greater than 250 nM. With RKN (ovary, adherent, top dose 0.25 µM) the AUC was 0.558 and the IC50 was 22.6 nM. Cell Line “IST-MEL1 (melanoma, adherent, top dose 0.25 µM)” has an AUC of 0.55 and an IC50 of 21.9 nM. “OCI-M1 (acute myeloid leukaemia, suspension, top dose 0.25 µM)” showed an AUC of 0.867 and an IC50 of 141 nM. “DSH1 (bladder, adherent, top dose 0.25 µM)” gave an AUC of 0.875 and an IC50 of 227 nM. With “MDA-MB-468 (breast, adherent, top dose 0.25 µM)” the AUC was 0.768 and the IC50 was 90.3 nM. In the case of “G-401 (kidney, adherent, top dose 0.25 µM)”, the AUC is reported as 0.663 and the IC50 is reported as 46.6 nM. With “IST-SL2 (small cell lung carcinoma, suspension, top dose 0.25 µM)” the AUC was 0.652 and the IC50 was 41 nM. With “BHY (head and neck, adherent, top dose 2 µM)” the AUC was 0.364 and the IC50 was 52.6 nM. “NCI-H322M (lung adenocarcinoma, suspension, top dose 0.25 µM)” gave an AUC of 0.89 and an IC50 greater than 250 nM. With “STS-0421 (soft tissue, adherent, top dose 0.25 µM)” the AUC was 0.77 and the IC50 was 111 nM. “WM-115 (melanoma, adherent, top dose 0.25 µM)” gave an AUC of 0.692 and an IC50 of 61.6 nM. “NCI-H526 (small cell lung carcinoma, suspension, top dose 0.25 µM)” was tested, and the AUC was 0.778 and the IC50 was 96.8 nM. “JHOS-2 (ovary, adherent, top dose 0.25 µM)” showed an AUC of 0.639 and an IC50 of 40.5 nM. In the case of “AGS (stomach, adherent, top dose 0.25 µM)”, the AUC is reported as 0.548 and the IC50 is reported as 20.8 nM. “SW756 (cervix, adherent, top dose 0.25 µM)” was tested, and the AUC was 0.888 and the IC50 was greater than 250 nM. In the case of “DOK (head and neck, adherent, top dose 0.25 µM)”, the AUC is reported as 0.534 and the IC50 is reported as 20.2 nM. For “NCI-H650 (lung adenocarcinoma, adherent, top dose 0.25 µM)”, the AUC was 0.723 and the IC50 was 72.2 nM. With “DMS-114 (small cell lung carcinoma, adherent, top dose 0.25 µM)” the AUC was 0.739 and the IC50 was 84.5 nM. Work on “SKM-1 (haematopoietic neoplasm, suspension, top dose 0.25 µM)” yielded an AUC of 0.618 and an IC50 of 34.1 nM. Work on “COLO-678 (large intestine, semi-adherent, top dose 0.25 µM)” yielded an AUC of 0.956 and an IC50 greater than 250 nM. For “SK-LMS-1 (soft tissue, adherent, top dose 0.25 µM)”, the AUC was 0.594 and the IC50 was 27.9 nM. “NCI-H187 (small cell lung carcinoma, suspension, top dose 0.25 µM)” gave an AUC of 0.832 and an IC50 of 179 nM. “SCC-15 (head and neck, adherent, top dose 0.25 µM)” was tested, and the AUC was 0.753 and the IC50 was 110 nM. In the case of “OSC-20 (head and neck, adherent, top dose 2 µM)”, the AUC is reported as 0.253 and the IC50 is reported as 21.1 nM. “NCI-H1993 (lung adenocarcinoma, adherent, top dose 0.25 µM)” was tested, and the AUC was 0.976 and the IC50 was greater than 250 nM. With “H2373 (mesothelioma, adherent, top dose 0.25 µM)” the AUC was 0.471 and the IC50 was 12.8 nM. “CAL-62 (thyroid, adherent, top dose 0.25 µM)” showed an AUC of 0.637 and an IC50 of 36.6 nM. Work on “ARH-77 (myeloma, suspension, top dose 0.25 µM)” yielded an AUC of 0.949 and an IC50 greater than 250 nM. “NCI-H2030 (lung adenocarcinoma, adherent, top dose 2 µM)” gave an AUC of 0.28 and an IC50 of 26.9 nM. In the case of “SNU-61 (large intestine, adherent, top dose 0.25 µM)”, the AUC is reported as 0.948 and the IC50 is reported as greater than 250 nM. With “NCI-H661 (large cell lung carcinoma, adherent, top dose 0.25 µM)” the AUC was 0.733 and the IC50 was 84.3 nM. “SW48 (large intestine, adherent, top dose 0.25 µM)” gave an AUC of 0.828 and an IC50 of 153 nM. “KP-2 (pancreas, adherent, top dose 0.25 µM)” was tested, and the AUC was 0.699 and the IC50 was 59.7 nM. With “ES8 (Ewing sarcoma, adherent, top dose 0.25 µM)” the AUC was 0.567 and the IC50 was 23.4 nM. For “SK-MEL-1 (melanoma, suspension, top dose 0.25 µM)”, the AUC was 0.904 and the IC50 was greater than 250 nM. “DMS-79 (small cell lung carcinoma, suspension, top dose 0.25 µM)” gave an AUC of 0.895 and an IC50 greater than 250 nM. In the case of “COLO-320-HSR (large intestine, suspension, top dose 0.25 µM)”, the AUC is reported as 0.793 and the IC50 is reported as 97.9 nM. Cell Line “KLE (endometrium, adherent, top dose 0.25 µM)” has an AUC of 0.824 and an IC50 greater than 250 nM. In the case of “NCI-H345 (small cell lung carcinoma, suspension, top dose 0.25 µM)”, the AUC is reported as 0.945 and the IC50 is reported as greater than 250 nM. Cell Line “TE-15 (oesophagus, suspension, top dose 0.25 µM)” has an AUC of 0.785 and an IC50 of 122 nM. In the case of “EVSA-T (breast, adherent, top dose 0.25 µM)”, the AUC is reported as 0.536 and the IC50 is reported as 19.3 nM. For “NCI-H1694 (small cell lung carcinoma, suspension, top dose 0.25 µM)”, the AUC was 0.826 and the IC50 was 150 nM. “KNS-81-FD (glioma, adherent, top dose 0.25 µM)” showed an AUC of 0.56 and an IC50 of 24.1 nM. “OV-56 (ovary, adherent, top dose 0.25 µM)” was tested, and the AUC was 0.579 and the IC50 was 25.5 nM. “NCI-H209 (small cell lung carcinoma, suspension, top dose 0.25 µM)” gave an AUC of 0.685 and an IC50 of 53.7 nM. Work on “JAR (urogenital system, adherent, top dose 0.25 µM)” yielded an AUC of 0.924 and an IC50 greater than 250 nM. “Calu-6 (lung adenocarcinoma, adherent, top dose 0.25 µM)” gave an AUC of 0.962 and an IC50 greater than 250 nM. Work on “LB2518-MEL (melanoma, adherent, top dose 0.25 µM)” yielded an AUC of 0.803 and an IC50 of 132 nM. With “Calu-3 (lung adenocarcinoma, adherent, top dose 0.25 µM)” the AUC was 0.726 and the IC50 was 82 nM. In the case of “KCL-22 (chronic myeloid leukaemia, suspension, top dose 0.25 µM)”, the AUC is reported as 0.647 and the IC50 is reported as 37 nM. “CP50-MEL-B (melanoma, adherent, top dose 0.25 µM)” gave an AUC of 0.735 and an IC50 of 72.6 nM. In the case of “PANC-10-05 (pancreas, adherent, top dose 0.25 µM)”, the AUC is reported as 0.737 and the IC50 is reported as 91.8 nM. Cell Line “CAL-72 (osteosarcoma, adherent, top dose 0.25 µM)” has an AUC of 0.602 and an IC50 of 31.4 nM. “G-361 (melanoma, adherent, top dose 0.25 µM)” showed an AUC of 0.747 and an IC50 of 76.9 nM. In the case of “TE-12 (oesophagus, suspension, top dose 0.25 µM)”, the AUC is reported as 0.733 and the IC50 is reported as 84.6 nM. Work on “MCF7 (breast, adherent, top dose 0.25 µM)” yielded an AUC of 0.67 and an IC50 of 47.5 nM. “SNU-C1 (large intestine, suspension, top dose 0.25 µM)” was tested, and the AUC was 0.67 and the IC50 was 58.6 nM. Work on “LU-139 (small cell lung carcinoma, suspension, top dose 0.25 µM)” yielded an AUC of 0.437 and an IC50 of 10 nM. “MEG-01 (chronic myeloid leukaemia, suspension, top dose 0.25 µM)” was tested, and the AUC was 0.787 and the IC50 was 102 nM. “OACp4C (oesophagus, adherent, top dose 0.25 µM)” was tested, and the AUC was 0.728 and the IC50 was 80.2 nM. “PANC-03-27 (pancreas, adherent, top dose 0.25 µM)” showed an AUC of 0.748.
